The source of these data is PMC10107326 (Angewandte Chemie (International Ed. in English), 2022).

≈ marks a conversion by molar mass, not a printed value. Read-outs that look alike come from different tables or passages of the source.

The subject of assay [1] is A. baumannii 054 (OXA-51-ISAba1). The assay can be described thus: microbe, parasite or virus in culture. The conditions noted are these: Acinetobacter baumannii.
The test system of assay [2] is A. baumannii 038 (OXA-23). The assay can be described thus: microbe, parasite or virus in culture. Conditions: Acinetobacter baumannii.
The subject of assay [3] is A. baumannii 045 (OXA-58). The assay is described as follows: microbe, parasite or virus in culture. Conditions: Acinetobacter baumannii.
Assay [4] concerns A. baumannii 047 (OXA-235). The assay can be described thus: microbe, parasite or virus in culture. The conditions noted are these: Acinetobacter baumannii.
The subject of assay [5] is A. baumannii 070 (NDM-1). The assay is described as follows: microbe, parasite or virus in culture. The conditions noted are these: Acinetobacter baumannii.
Assay [6] deals with A. baumannii 046 (OXA-40). The assay can be described thus: microbe, parasite or virus in culture. Conditions: Acinetobacter baumannii.
The test system of assay [7] is A. baumannii 054 (OXA-51-ISAba1).
For assay [8], the system named is A. baumannii 046 (OXA-40).
Assay [9] concerns A. baumannii 047 (OXA-235).
Assay [10] concerns A. baumannii 045 (OXA-58).
Assay [11] relates to A. baumannii 070 (NDM-1).
In assay [12] the test system is A. baumannii 038 (OXA-23).
[13] abbreviates: Table S 4 antibiogram, CRAB clinical isolate 054 (OXA-51-ISAba1).
Setting [14] is: Table S 4 antibiogram, CRAB clinical isolate 046 (OXA-40).
The mark [15] stands for this setting: Table S 4 antibiogram, CRAB clinical isolate 047 (OXA-235).
[16] abbreviates: Table S 4 antibiogram, CRAB clinical isolate 045 (OXA-58).
Where [17] appears, read: Table S 4 antibiogram, CRAB clinical isolate 070 (NDM-1).
Where [18] appears, read: Table S 4 antibiogram, CRAB clinical isolate 038 (OXA-23).

Compound `NCC[C@H](O)C(=O)N[C@@H]1C[C@H](N)[C@@H](O[C@H]2O[C@H](CN)[C@@H](O)[C@H](O)[C@H]2O)[C@H](O)[C@H]1O[C@H]1O[C@H](CO)[C@@H](O)[C@H](N)[C@H]1O` [AMK, Amikacin] displayed an MIC in [1] of 2 µg/mL (≈ 3.42 µM).

For `C[C@H]1COc2c(N3CCN(C)CC3)c(F)cc3c(=O)c(C(=O)O)cn1c23` [LEV, Levofloxacin], the MIC in [2] was 8 µg/mL (≈ 22.1 µM); in [3] it was 8 µg/mL (≈ 22.1 µM); in assay [4] it was 8 µg/mL (≈ 22.1 µM); with A. baumannii 070 (NDM-1) [5], 4 µg/mL (≈ 11.1 µM); in assay [6] it was 8 µg/mL (≈ 22.1 µM).

With `CN(C)c1ccc(O)c2c1C[C@H]1C[C@H]3[C@H](N(C)C)C(O)=C(C(N)=O)C(=O)[C@@]3(O)C(O)=C1C2=O` [MNO, Minocycline], the MIC in assay [1] is 1 µg/mL (≈ 2.19 µM); in assay [2] it was 1 µg/mL (≈ 2.19 µM); in [3], 4 µg/mL (≈ 8.74 µM); with A. baumannii 070 (NDM-1) [5] it was at most 0.0625 µg/mL; in [6] it was 4 µg/mL (≈ 8.74 µM).

As for `CN(C)c1cc(NC(=O)CNC(C)(C)C)c(O)c2c1C[C@H]1C[C@H]3[C@H](N(C)C)C(O)=C(C(N)=O)C(=O)[C@@]3(O)C(O)=C1C2=O` [TGC, Tigecyline], the MIC in [7] (setting [13]) is recorded as 1 µg/mL (≈ 1.71 µM); in [8] (setting [14]), 1 µg/mL (≈ 1.71 µM); in assay [9] (setting [15]), 1 µg/mL (≈ 1.71 µM); in assay [10] (setting [16]), 1 µg/mL (≈ 1.71 µM); in the assay on A. baumannii 070 (NDM-1) [11] (setting [17]), 0.125 µg/mL (≈ 0.213 µM); in [12] (setting [18]) it was 2 µg/mL (≈ 3.41 µM).

As for `NC[C@H]1O[C@H](O[C@H]2[C@H](O)[C@@H](O[C@H]3O[C@H](CO)[C@@H](O)[C@H](N)[C@H]3O)[C@H](N)C[C@@H]2N)[C@H](N)C[C@@H]1O` [TOB, Tobramycin], in assay [3], the MIC came to 1 µg/mL (≈ 2.14 µM).

With colistin, the MIC is 0.5 µg/mL in assay [7] (setting [13]); 0.125 µg/mL in [7] (clinical CRAB isolate A. baumannii 054 (OXA-51-ISAba1), Table 3); 0.5 µg/mL in assay [8] (setting [14]); 0.25 µg/mL in assay [8] (clinical CRAB isolate A. baumannii 046 (OXA-40), Table 3); 0.5 µg/mL in [9] (setting [15]); 0.25 µg/mL in [9] (clinical CRAB isolate A. baumannii 047 (OXA-235), Table 3). Moreover, the MIC in assay [10] (setting [16]) was 0.5 µg/mL; in assay [10] (clinical CRAB isolate A. baumannii 045 (OXA-58), Table 3), 0.125 µg/mL; with A. baumannii 070 (NDM-1) [11] (setting [17]), 0.5 µg/mL; with A. baumannii 070 (NDM-1) [11] (clinical CRAB isolate A. baumannii 070 (NDM-1), Table 3), 0.125 µg/mL; in assay [12] (setting [18]), 0.5 µg/mL; in [12] (clinical CRAB isolate A. baumannii 038 (OXA-23), Table 3), 0.25 µg/mL.
